± gives the standard deviation of the averaged measurements. The list shows a part of the results.
These sequences were tested on PfAP2-G AP2 domain (GST-tagged) (assay: gcPBM binding intensity (ln(normalized median fluorescence intensity)); higher = stronger DNA binding).
Procedure, shortened: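 GST-tagged P. falciparum DNA-binding domains, expressed in E. coli (about 25 μg on average), were applied for 1 h to an Agilent 4 × 180k array of primer-extended double-stranded 36-bp intergenic genomic probes plus negative controls. The binding buffer was 1× PBS with 1% milk, 0.2 mg/ml BSA, 0.5% salmon testes DNA and 0.03% Triton X-100. Bound protein was detected with Alexa488 anti-GST antibody and scanned at 488 nm. Binding intensity is the highest Masliner-normalised natural-log median intensity across replicate spots of either probe orientation.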

Row | Sequence | gcPBM binding intensity (ln)
1 | TTGTTCTATATATATGCATGCACGTATGTTAAATTA [TGCATGCA_site659] | 10.3 ± 0.33
2 | AAGAAAAGAACAAGAGCATGCACTTAATAAGAATAA [TGCATGCA_site818] | 9.76 ± 0.15
3 | TTAATATATTTTAAAAGTACATAATATTATTTTTTA [XGTACX_site3642] | 11.1 ± 0.78
4 | ATATTTTTATGTACTTCAAAAAAAAAGAAAAACAAA [CACACA_negctrl_site970] | 11.5 ± 1
5 | CTCTATTGTTAAAAGGTGCTTTTATGATTTTATATA [GTGCAC_site9409] | 9.89 ± 0.17
6 | AAAAAAAACAGACACACACACATACAAAATATATAT [CACACA_site1449] | 10.1 ± 0.26
7 | TTTAAATACAGACATACACACATACACAGACATATA [CACACA_site4460] | 10.2 ± 0.18
8 | ATAATTTCACAAATAGTGCAAAAATTAGTAAGAATA [GTGCAC_site9648] | 10.1 ± 0.2
9 | TTTTTTTTCTATGTGGTGCACATTATTTTTTTTTTT | 10.5 ± 0.3
10 | TTTTATAAATATTATACATGCATAATGATAAAAAAA [TGCATGCA_site927] | 9.845 ± 0.078
11 | TATGTAACCTGTTTTACACACCCCCACCCCCCTCTT [CACACA_site319] | 11.5 ± 0.79
12 | AAGAGGTTAATGAAATGTACACATATATATATATAT [XGTACX_site1861] | 11.4 ± 0.82
13 | TATAGTTTTGAAAACAAACACACAAAAAAAAAAAAA [CACACA_site1691] | 9.86 ± 0.39
14 | AAATATATGTATATATGTACATATGTGTGCTATCAT [XGTACX_site1604] | 11 ± 0.57
15 | TATATATATATATGTAGTACTCAATATTGTAGATTA [XGTACX_site3856] | 11.3 ± 0.88
16 | GTTTACATTTTAAGAAGTACAAAATTTATGGTTAAA [XGTACX_site450] | 11.3 ± 0.8
17 | TAATTTTTTTTTAATTGTACATGTGAATATATTTCA [XGTACX_site4115] | 11 ± 0.67
18 | GCCATAATATGACATACACACACAAAAAAAAAAAAA [CACACA_site8353] | 9.99 ± 0.4
19 | AAATTTCCATTTGGGTGTACATGTGAAACTACAAAG [XGTACX_site208] | 11.4 ± 0.97
20 | ATACATACAAAAATTTGTACATATTTCCAATAATGT [XGTACX_site2658] | 11 ± 0.51
21 | GAAAAAACGAAAAAAATACACACCTGAAAAGATATG [CACACA_site887] | 9.95 ± 0.028
22 | AAAAATAAACAAAATTGTACACATTACATACATATA [XGTACX_site966] | 11.2 ± 0.61
23 | AAACAATTGAATAAATGTACAGATACATTTTTTTAA [XGTACX_site5386] | 11 ± 0.64

Row | Sequence | gcPBM binding intensity (ln)
24 | TATTTATCTATTTTGTTATATAATAAAATAAAATAA [CACACA_negctrl_site281] | 9.88 ± 0.38
25 | TTTTCCCTCTTATTCACACAAAAAAAATAAAATAAA [CACACA_site4656] | 9.99 ± 0.23
26 | ACACTAACATCATATCGTACATTTGTTAATTTATAA [XGTACX_site8654] | 10.8 ± 0.48
27 | TATTTATTTTTTTTTGTGCACTTAATATAATCTTAC | 10.4 ± 0.21
28 | TCTTTTAAAAAAATTTGTACATATTTTTTGTATTAT [XGTACX_site67] | 11.1 ± 0.7
29 | TTCTTAATATTGCATGCACACTATATAATAATTGAA [CACACA_site4720] | 10 ± 0.42
30 | TTTTTATTTATATGATACTTATATATATATATATAT [CACACA_negctrl_site462] | 10.2 ± 0.35
31 | GATTGATTATATGTGTGTACTTATATGTTAAAAAAA [XGTACX_site4784] | 11.5 ± 0.89
32 | TATGAATATCTATACACACACATATATATACCCACT [CACACA_site4963] | 10.3 ± 0.26
33 | TGTTCTTTGTTCAGCGCATGTAAAATAAAATAAAAT [TGCATGCA_site629] | 10.4 ± 0.7
34 | TTTTTTTTTGAATACAGTACACAAGTGTTAAGTTTA [XGTACX_site7069] | 11.2 ± 0.84
35 | AGGAGGATGCATATGGCACACATTATGAAACTGTCG [CACACA_site299] | 10.05 ± 0.028
36 | GAAAGAATAAAATTTACACACATATAAATATACATA [CACACA_site7125] | 9.78 ± 0.057
37 | TATTTGAAAACATAGGTGCACATTATTTTATAATCT [GTGCAC_site9947] | 10.3 ± 0.3
38 | AAAGGTGTCATATATGCACACAAAAGTAACACGCAC [CACACA_site8051] | 10.5 ± 0.18
39 | TTTATTCTTGAGTATTGTACATATGTGTTTGTATAT [XGTACX_site5706] | 11 ± 0.71
40 | TGTAAGCACATACAAACACACAACATTATTTTTATC [CACACA_site2186] | 10 ± 0.11
41 | TAGTATAATATGAACACACACACACGCACAAAAAAA [CACACA_site7035] | 10.4 ± 0.2
42 | AAAGGAAAAATCCAAGTGCATTATTATTTTCACAAA [GTGCAC_site9995] | 9.835 ± 0.064
43 | ATCGTTATATAAAAATGTACTTATAAATTGTATACA [XGTACX_site6664] | 11.2 ± 0.83
44 | CAACATTTGATAAACACACAGAAGTATAAATATATA [CACACA_site2365] | 10.24 ± 0.035
45 | ATTTCTTTTTTATTGAGTACATATGACCATGTTCAA [XGTACX_site5365] | 11.5 ± 0.86

Source: the supplement of paper PMC11417369
